This is an account of results in PubChem BioAssay AID1963576 (National Center for Advancing Translational Sciences (NCATS), 2024).

The campaign covered roughly 46,000 compounds. About 60 (0.1%) were called active. Roughly 3% stayed inconclusive and do not appear here. Calls follow the shape of the dose curve; as a rule, active = well fitted inhibition curve with a large enough effect; inconclusive = small, poorly fitted or top-dose-only effect; inactive = no such curve, though single readings can be large or run the other way. The list shows a part of the results.

This experiment is described as follows: Primary qHTS assay for Inhibitors of ovarian cancer metastasis using an organotypic tumor microenvironment (TME) model. Also: nearly all actives have a fitted effect of over 65% in size. Particulars: SKOV3ip1-GFP adhesion/invasion on 3D omental model, fluorescence; series mostly up to 45.8 µM; activity change, negative = inhibition: at the top concentration. The text has this:
PI: Ernst Lengyel MD., Ph.D. Department of Obstetrics and Gynecology, Section of Gynecologic Oncology University of Chicago Medicine, Chicago, Illinois. The tumor microenvironment (TME) is a key determinant of metastatic efficiency. We performed a quantitative high-throughput screen (qHTS) of diverse medicinal chemistry tractable scaffolds (44,420 compounds) and pharmacologically active small molecules (386 compounds) using a layered organotypic, robust assay representing the ovarian cancer metastatic TME. This 3D model contains primary human mesothelial cells, fibroblasts, and extracellular matrix, to which fluorescently labeled ovarian cancer cells are added. Initially, 100 compounds inhibiting ovarian cancer adhesion/invasion to the 3D model in a dose-dependent manner were identified. Of those, eight compounds were confirmed active in five high-grade serous ovarian cancer cell lines and were further validated in secondary in vitro and in vivo biological assays. […] Specifically, NCGC00117362 and PP-121 inhibited ovarian cancer adhesion, invasion, and proliferation, whereas milciclib inhibited ovarian cancer invasion and proliferation. […] To evaluate the clinical potential of NCGC00117362, structure - activity relationship studies were performed. […] The three compounds identified have promise as therapeutics for prevention and treatment of ovarian cancer metastasis.
PROTOCOL TABLE (as described by Inglese J, Shamu CE and Guy RK. 2007) SEQUENCE No. (e.g., 1, 2, 3, etc.); […] (e.g., Cells, Incubation, Reagent, etc.); VALUE; DESCRIPTION. 1; Cells; 4 uL; primary human omental fibroblast, black, clear bottom, low base, 1536-well Aurora assay plate. 2; Incubation; 48 hr; 37C. 3; Cells; 3 uL; 1,200 SKOV3ip1-GFP cells. 4; Compounds; 23nL; acoustic dispenser. 5; Incubation; 2 hr; room temperature. 6; Incubation; 16 hr; 37C. 7; Wash; 5 uL; 1x PBS. 8; Fixing; 5 uL; 4% paraformaldehyde (PFA). 9; Incubation; 15 min; room temperature 10; Wash, 5 uL; 1x PBS. 11; Detection; Fluorescence, excitation filter 488 nm, emission filter 509 nm. NOTES (numbers refer to Sequence numbers above) 1. For the 1,536-well format, 40 primary human omental fibroblasts and 400 mesothelial cells were seeded with 0.02 µg fibronectin and 0.02 µg collagen type I in 4 µL of growth media (2.3 mm2; Supplementary Fig. S1A). 2. Assay plates were incubated for 48 hours at 37 C. 3. After incubation, 1,200 SKOV3ip1-GFP were seeded in 3 µL of serum-free media (growth media minus FBS) on top of primary human omental cells. 4. Compounds or controls were added to each well immediately after the addition of the cancer cells. Compounds were screened in four doses (0.36-46 µmol/L), and the plates contained the positive control (Tomatine) in eight doses (0.035-75 µmol/L) and DMSO (equal volume controls) 5 - 6. The plates were incubated at room temperature for 2 hours and then at 37 degrees C for 16 hours. 7 - 10. Following incubation, the media were aspirated and each well washed with PBS (5 µL) and then fixed with 4% paraformaldehyde (PFA; 5 µL). After 15 minutes, the PFA solution was aspirated, PBS (5 µL) was added. 11. The number of GFP-labeled cells analyzed using a fluorescent cytometer TTP LabTech Acumen eX3 using 488 nm excitation filter and 509 nm emission filter. Data was normalized to the DMSO treated for negative and Tomatine treated wells for positive control. REFERENCES: Inglese J, Shamu CE and Guy RK, Reporting data from high throughput screening of small molecule libraries, Nature Chemical Biology, 2007, 3(8): 438-441. doi.org/10.1038/nchembio0807-438. Yasgar A, Shinn P, Jadhav A, Auld DS, Michael S, Zheng W, Austin CP, Inglese J and Simeonov A, Compound Management for Quantitative High-Throughput Screening. J. Assoc. Lab. Auto., 2008, 13: 79-89. doi: 10.1016/j.jala.2007.12.004.
A general note: qHTS replaces the single test concentration by a dilution series.
In the case of `CCOc1ccc(S(=O)(=O)N(CC(=O)NCCSCc2ccccc2)c2ccccc2)cc1`, the “activity change, negative = inhibition” value was inactive: 92.6%.

Regarding `COc1cc2nc(SCc3ccc(F)cc3)n3nc(CCn4c(C)nc5ccccc54)nc3c2cc1OC`, the “activity change, negative = inhibition” value is inactive: 8.3%.

Regarding `CCc1ccc(-c2ccc3nnc(SCC(=O)Nc4cccc(C(C)=O)c4)n3n2)cc1`, the “activity change, negative = inhibition” value was inactive: 6.64%.

With `CCCNC(=O)Cn1c(=O)cc(C)c2c(C)nn(-c3cccc(F)c3)c21`, the result was inactive.

For the compound `N#Cc1c(-c2ccccc2)cc(-c2ccccc2)nc1SCC(=O)Nc1ccc(Cl)cc1`, the “activity change, negative = inhibition” value was inactive: -9.01%.

Regarding `Cc1ccccc1-c1nn2c(=O)cc(CN3CCN(C(=O)c4ccccc4Br)CC3)nc2s1`, the “activity change, negative = inhibition” value was inactive: 2.87%.

With `CCc1ccccc1NC(=O)C(CCSC)NS(=O)(=O)c1ccc2c(c1)oc(=O)n2C` (stereo not drawn), the “activity change, negative = inhibition” value was inactive: -2.24%.

For the compound `CCOC(=O)N1CCN(C(=O)c2cnn(-c3cccc(F)c3)c2-n2cccc2)CC1`, the “activity change, negative = inhibition” value is inactive: 5.36%.

For `Cc1cccc(Oc2nc3c(c(=O)n(C)c(=O)n3C)n2C)c1C`, the “activity change, negative = inhibition” value was inactive: 21.7%.

Turning to `COc1ccc(NC(=O)c2oc3ccccc3c2NC(=O)c2cc(OC)c(OC)c(OC)c2)cc1`, the outcome was inactive.

As for `COc1ccc(NC(=O)c2c(C)oc3ccc(O)c(CN4CCCC(C)C4)c23)cc1` (stereo not drawn), the “activity change, negative = inhibition” value was inactive: 2.82%.

Consider `COc1cccc(CNC(=O)c2ccc(CS(=O)c3ccccc3)o2)c1` (stereo not drawn), for which the “activity change, negative = inhibition” value was inactive: -4.72%.

For `COc1ccc(CCNC(=O)CN2C(=O)COc3ccccc32)cc1OC`, the result was inactive.

`COc1ccc(CCNC(=O)Cn2c(-c3cccs3)cc3cc(F)ccc32)cc1OC`: the “activity change, negative = inhibition” value was inactive: 4.62%.

On to `COc1ccc(C2=C(N3CCN(c4cc(Cl)ccc4C)CC3)c3ccccc3C2=O)cc1`, for which the outcome was inactive.

For `COc1ccccc1OCC(=O)Nc1cc(-c2ccc(C)cc2)no1`, the “activity change, negative = inhibition” value was inactive: 9.03%.

As for `Fc1cccc(CSc2nc(NCCc3ccccc3)c3ccccc3n2)c1`, the compound was classed as inactive.

In the case of `COc1cccc([C@H]2Nc3ccc(S(=O)(=O)Nc4cc(C)ccc4C)cc3[C@H]3C=CC[C@H]32)c1`, the “activity change, negative = inhibition” value was inactive: -9.26%.

As for `CC1CCN(S(=O)(=O)c2ccc3nc(N4CCN(c5ccccc5)CC4)ccc3c2)CC1`, the “activity change, negative = inhibition” value was inactive: 2.91%.

For `Oc1c(C(c2ccc(Cl)cc2)N2CCOCC2)sc2nc(-c3ccco3)nn12` (stereo not drawn), the compound was classed as inactive.

With `Cn1c(=O)c(-c2c(Cl)cccc2Cl)cc2cnc(Nc3cccc(C(=O)O)c3)nc21`, the “activity change, negative = inhibition” value was inactive: 5.12%.

As to `Cc1cc(C)c(OCC(=O)Nc2cccc(-c3nc4ncccc4o3)c2)c(Br)c1`, the “activity change, negative = inhibition” value was inactive: 11.4%.

In the case of `COc1cc(NS(=O)(=O)c2cccs2)cc(OC)c1`, the compound was called inactive.

Consider `CC(=O)c1cc(-c2ccc(F)cc2)n(CC(=O)NCc2ccc(C)cc2)c1C`, for which the “activity change, negative = inhibition” value was inactive: 5.08%.

`CCOC(=O)c1cccc(NC(=O)NCc2ccc3c(c2)CCN3C(=O)CC)c1`: the “activity change, negative = inhibition” value was inactive: 7.34%.

For the compound `CCCn1c2ccccc2c2cnn(CC(=O)NCCc3cc(OC)ccc3OC)c(=O)c21`, the “activity change, negative = inhibition” value was inactive: 7.75%.

On to `Cc1nc(-c2ccc(F)cc2)sc1CCNC(=O)C(=O)Nc1ccc2c(c1)OCO2`, for which the “activity change, negative = inhibition” value is inactive: 4.61%.

`CCN(CC)c1ccc(NC(=O)c2sc3nc(-c4ccccc4)cn3c2C)cc1`: the result was inactive.

As to `COc1cccc(-c2nc(CS(=O)(=O)CC(=O)NCCCc3ccccc3)c(C)o2)c1`, the “activity change, negative = inhibition” value was inactive: 8.16%.

Take `Cc1ccc(S(=O)(=O)N2CCCc3cc(NC(=O)c4ccc(C(C)(C)C)cc4)ccc32)cc1`: the “activity change, negative = inhibition” value was inactive: 0.393%.

As for `Cc1ccc(CSc2ncccc2C(=O)O)cc1`, the “activity change, negative = inhibition” value is inactive: -1.11%.

For the compound `CCC(=O)Nc1ccccc1-c1nc2ccccc2n(CC(=O)c2ccc(Br)cc2)c1=O`, the “activity change, negative = inhibition” value is inactive: -3.74%.

Take `Cc1ccc(Cl)cc1NC(=O)Cn1cc(S(=O)(=O)Cc2ccccc2Cl)c2ccccc21`: the compound was classed as inactive.

For the compound `CCc1ccc(C(=O)c2cn(CC(=O)Nc3ccc(OC)c(Cl)c3)c3nc(C)ccc3c2=O)cc1`, the “activity change, negative = inhibition” value is inactive: 3.3%.

As to `CC1=C(C(=O)Nc2cccc(C(F)(F)F)c2)C(c2ccccn2)n2ncnc2N1` (stereo not drawn), the compound was called inactive.

`CCCN(C(=O)NCc1noc2ccc(C)cc12)c1ccc(Cl)c(Cl)c1`: the “activity change, negative = inhibition” value is inactive: -11.3%.

Consider `COc1ccc(N2CCN(C(=O)c3nn(C)c4c3CSc3ccccc3-4)CC2)cc1`, for which the “activity change, negative = inhibition” value was inactive: -3.15%.

Turning to `CCCc1cc(=O)[nH]c(SCc2nc(-c3ccc(OC)cc3)no2)n1`, the “activity change, negative = inhibition” value is inactive: 2.24%.

Consider `Cc1cn([C@H]2C[C@H](N=[N+]=[N-])[C@@H](CO)O2)c(=O)[nH]c1=O`, for which the “activity change, negative = inhibition” value is inactive: -4.12%.

For `O=C(Cn1c(SCCOc2ccccc2Cl)nc2ccccc21)N1CCCCC1`, the “activity change, negative = inhibition” value was inactive: 10.2%.

Consider `Cc1cc(C)cc(OCC(=O)NCC2(N3CCOCC3)CCCCC2)c1`, for which the compound was called inactive.

In the case of `CCOC(=O)c1ccccc1NC(=O)c1sc2ncn(CC)c(=O)c2c1C`, the “activity change, negative = inhibition” value is inactive: 5.02%.

As to `O=C(C1CCN(c2ncnc3c2nc2n3CCCCC2)CC1)N1CCN(c2ccccc2)CC1`, the compound was classed as inactive.

Turning to `Cc1ccc(S(=O)(=O)Nc2cc3c(C(=O)OCc4ccccc4)c(C)oc3c3ccccc23)cc1`, the “activity change, negative = inhibition” value was inactive: 3.76%.

With `Cc1ccc(C)c(NC(=O)Cn2c(=O)n(Cc3ccco3)c(=O)c3ccc(C(=O)NC4CCCC4)cc32)c1`, the “activity change, negative = inhibition” value is inactive: -1.79%.

Consider `N#Cc1ccccc1Cn1c(=O)n(-c2ccc(F)c(Cl)c2)c(=O)c2sccc21`, for which the compound was classed as inactive.

As to `COc1ccc(CC(=O)NCCc2csc(-c3cccc(F)c3)n2)cc1OC`, the “activity change, negative = inhibition” value is inactive: 0.643%.

Take `COc1cccc(CNC(=O)c2nnc(Cc3ccc(Cl)cc3)o2)c1`: the “activity change, negative = inhibition” value is inactive: 4.87%.
